Laboratory results: paper PMC4336329 (PLoS ONE, 2015)
Hit rate of the full screen: of about 310,000 compounds, about 2,200 (0.71%) showed an effect of 50% or more. Effects have a minus sign here. This is one part of the list.

Target: human ether-à-go-go-related gene (hERG) potassium channel (human, UniProt Q12809)
Experiment: primary screen, population patch clamp on CHO cells stably expressing hERG

Sequence of human ether-à-go-go-related gene (hERG) potassium channel (Q12809 whole entry, looked up): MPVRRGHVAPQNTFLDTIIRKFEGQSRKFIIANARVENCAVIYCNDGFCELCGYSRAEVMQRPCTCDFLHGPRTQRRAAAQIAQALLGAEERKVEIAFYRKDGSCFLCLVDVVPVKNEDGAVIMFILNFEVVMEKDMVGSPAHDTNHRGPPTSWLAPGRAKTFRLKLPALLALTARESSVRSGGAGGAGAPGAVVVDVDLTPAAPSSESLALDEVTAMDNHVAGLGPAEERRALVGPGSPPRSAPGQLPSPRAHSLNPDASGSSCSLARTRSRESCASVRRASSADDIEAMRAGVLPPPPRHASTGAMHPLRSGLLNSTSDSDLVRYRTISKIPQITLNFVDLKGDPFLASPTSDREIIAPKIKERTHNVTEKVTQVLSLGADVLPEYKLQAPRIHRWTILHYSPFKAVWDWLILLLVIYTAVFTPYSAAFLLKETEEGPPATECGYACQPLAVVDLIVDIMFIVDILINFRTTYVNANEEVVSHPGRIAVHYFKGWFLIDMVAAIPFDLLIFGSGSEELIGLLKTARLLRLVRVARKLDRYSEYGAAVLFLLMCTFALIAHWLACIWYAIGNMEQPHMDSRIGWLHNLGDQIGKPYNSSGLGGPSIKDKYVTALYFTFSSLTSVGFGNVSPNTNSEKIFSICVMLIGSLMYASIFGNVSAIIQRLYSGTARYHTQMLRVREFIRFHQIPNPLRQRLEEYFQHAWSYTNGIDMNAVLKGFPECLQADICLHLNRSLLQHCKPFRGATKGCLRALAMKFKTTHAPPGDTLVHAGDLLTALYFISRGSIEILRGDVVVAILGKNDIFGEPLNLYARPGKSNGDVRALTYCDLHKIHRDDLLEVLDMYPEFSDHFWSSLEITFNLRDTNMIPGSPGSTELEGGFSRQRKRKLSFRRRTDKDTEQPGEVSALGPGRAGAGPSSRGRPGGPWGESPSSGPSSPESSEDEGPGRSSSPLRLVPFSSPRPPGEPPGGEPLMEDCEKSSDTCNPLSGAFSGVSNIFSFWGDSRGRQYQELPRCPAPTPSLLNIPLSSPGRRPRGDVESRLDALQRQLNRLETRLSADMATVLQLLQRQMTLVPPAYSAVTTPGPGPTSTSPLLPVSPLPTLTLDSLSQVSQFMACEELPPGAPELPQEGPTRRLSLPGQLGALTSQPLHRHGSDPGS

Row | SMILES | hERG current change (%, negative = inhibition) at 1uM [%]
1 | COCc1cc(C)n(CC(=O)Nc2ccc(N3CCOCC3)c(Cl)c2)c(=O)c1C#N | 11.5
2 | CCOC(=O)c1ccc(CNC(=O)c2cc(C(C)(C)C)oc2C)o1 | 10.7
3 | O=C(NC1CC1)C1=C[C@@H](c2ccc3c(c2)OCO3)C[C@@H](OCc2ccc(CO)cc2)O1 | 15.1
4 | Cc1ccc(C(=O)Nc2cccc(C(F)(F)F)c2)cc1Nc1cnccn1 | -0.92
5 | COc1cc(-c2nc3ccccn3c2/N=C/c2ccc(F)cc2)ccc1O | 25
6 | CC(C)(Cc1ccccc1)NC(=O)C(=O)c1cn(CC(=O)N2CCOCC2)c2ccccc12 | 9.27
7 | CSc1ccc(/C=C2\CCn3c2nc2cc(C(=O)O)ccc2c3=O)cc1 | 15.6
8 | [O-]/[N+](=C\c1ccccc1)c1ccc(Br)cc1 | 4.81
9 | CCOc1ccc(CN(C)C(=O)Cc2c[nH]c3ccccc23)cc1 | 10.1
10 | CC1=C(C(N)=O)C(c2ccc(Cl)c(Cl)c2)n2ncnc2N1 (stereo not shown) | 17
11 | O=C(Cn1c(=O)c2c(ncn2Cc2ccccc2)n(Cc2ccccc2)c1=O)N1CCCC1 | 5.54
12 | Nc1nc(Nc2ccc(Cl)cc2)nc(NCc2ccco2)c1[N+](=O)[O-] | -0.203
13 | CCn1c(SC(C)C(=O)NC2CCCC2)nc2cc(S(N)(=O)=O)ccc21 (stereo not shown) | 12.5
14 | Cc1ncc([N+](=O)[O-])n1Cc1cccc(F)c1 | 10.7
15 | CC1CCCCN1S(=O)(=O)c1ccc(C(=O)N(CCCN(C)C)c2nc3ccc(Br)cc3s2)cc1.Cl (stereo not shown) | 6.2
16 | Cc1c(-n2cc(C(=O)c3cc(Br)ccc3O)cc(C#N)c2=O)c(=O)n(-c2ccccc2)n1C | -17.5
17 | CCOc1ccc(NC(=O)c2ccc3nccnc3c2)cc1 | 17.3
18 | CCN(C(=O)COC(=O)CCc1ccccc1OC)c1c(N)n(Cc2ccccc2)c(=O)[nH]c1=O | 1.12
19 | CCOC(=O)c1c(C)nc(-c2ccccc2)nc1NC(=O)CC | 4.55
20 | COC(=O)c1cc(S(=O)(=O)NCC2CCN(Cc3ccc(F)cc3)CC2)c[nH]1 | 7.24
21 | COc1ccc(-c2csc3nc[nH]c(=O)c23)cc1 | -8.89
22 | COc1ccc(OC)c(S(=O)(=O)NCCc2ccccc2)c1 | 11.8
23 | CCOc1ccc(-c2nnn(CC(=O)NCc3ccco3)n2)cc1 | -2.63

Row | SMILES | hERG current change (%, negative = inhibition) at 1uM [%]
24 | CCN(CC(=O)Nc1c(F)cccc1F)C(=O)c1cc(C)nc2ccccc12 | 8.86
25 | C=CCN(c1ccc(Cl)cc1)S(=O)(=O)c1cccc(C(=O)O)c1 | 15.3
26 | O=C(Nc1ccc(N2CCCC2)cc1)c1ccc([N+](=O)[O-])cc1Cl | 9.52
27 | C=CCN1C(=O)S/C(=C/c2ccsc2)C1=O | 10.6
28 | CCCC1CC(c2csc(N)n2)CCO1 (stereo not shown) | 12.1
29 | COCCCN1C(=O)c2ccc(C(=O)Nc3ccccc3OC)cc2C1=O | 2.45
30 | Cc1c(NC(=O)C(C)SC(=S)N2CCCC2)c(=O)n(-c2ccccc2)n1C (stereo not shown) | 8.1
31 | COc1ccc(Nc2ncc(C#N)c(N)n2)c(OC)c1 | 4.85
32 | O.O=c1ccc2cc(O[C@@H]3O[C@@H](CO)[C@H](O)[C@@H](O)[C@@H]3O)c(O)cc2o1 | 10.5
33 | CCOC(=O)c1[nH]cnc1C(=O)Nc1ccccc1 | 5.4
34 | O=C(COc1ccccc1)NCC(=O)N/N=C/c1ccc(Br)cc1 | -18.1
35 | COc1cccc(-c2nn(Cc3ccccc3)cc2CO)c1 | 15
36 | O=C(NNc1nc2ccc(Cl)cc2s1)c1cc(-c2cccs2)nc2ccccc12 | 4.23
37 | CCCc1nnc(SCC(=O)N2C(C)CCCC2C)n1CCCOC (stereo not shown) | 0.38
38 | COC(=O)c1ccc(S(=O)(=O)NCc2ccco2)n1C | 9.08
39 | CCN(CCCCN1C(=O)c2ccccc2C1=O)c1ccc2c(c1)C(=O)N(C)C2=O | 5.82
40 | COc1ccc(S(=O)(=O)N2CCCCCC2)cc1C(=O)N(C)Cc1ccc(Cl)cc1Cl | -2.04
41 | COc1cc(/C=C/C(=O)O)cc(Br)c1O | 8.32
42 | COc1cccc(-c2[nH]nc3c2C(c2ccc(C)o2)C(C#N)=C(N)O3)c1 (stereo not shown) | -4
43 | Cc1cc(Nc2ccc(Cl)cc2)nc(NCc2ccccc2)n1 | 9.08
44 | O=C(CS(=O)(=O)c1ccc(Br)cc1)N1CCOCC1 | 10
45 | COC(=O)c1ccc(NC(=S)NC2CC(C)(C)NC(C)(C)C2)cc1 | 9.48
46 | O=C(NC1CCCc2ccccc21)c1ccccn1 (stereo not shown) | 11.7

Row | SMILES | hERG current change (%, negative = inhibition) at 1uM [%]
47 | O=C(Nc1cccc(C(=O)N2CCOCC2)c1)NC1CCCCC1 | 0.506
48 | COc1cc(OC)c(NC(=O)c2cncn2-c2ccc(F)cc2)cc1Cl | 5.23
49 | COc1ccccc1N(CC(=O)N/N=C(\C)c1ccc(F)cc1)S(=O)(=O)c1ccccc1 | 28.3
50 | O=C(c1ccc(Cl)c(S(=O)(=O)N2CCCCC2)c1)N1CCCC1 | 12.1
51 | Cc1c(NC(=O)NC2CCCCC2)cccc1[N+](=O)[O-] | 17.2
52 | CCSc1nsc(NC(=O)Nc2ccc(F)cc2F)n1 | 18.3
53 | O=C(CCl)N(CCc1ccccc1)CCc1ccccc1 | 7.11
54 | CC(C)c1ccc(/C=c2\sc3nc(-c4ccncc4)nn3c2=O)cc1 | 5.57
55 | CCc1nc2sccc2c(=O)n1N | 24.9
56 | COc1ccccc1C/C(N)=N/OC(=O)COc1cccc(C)c1 | 6.86
57 | Cc1nn(Cc2ccc(F)cc2)c(C)c1NC(=O)c1cc(-c2ccc3c(c2)OCO3)on1 | -2.14
58 | CCOC(=O)c1ccc(N2CCOCC2)c(NC(=O)COCC(=O)O)c1 | 10.9
59 | Cc1ccc(-c2nc(-c3ccncc3)no2)c(C)c1 | 14.1
60 | O=C(Nc1ccccc1-c1nnn(CC(=O)N2CCOCC2)n1)c1ccc(F)cc1 | 11.6
61 | OC1(CNCc2cn[nH]c2-c2cc3ccccc3o2)CCCCC1 | 5.16
62 | CCc1ccc(CNCc2ccc(F)cc2)cc1 | 1.27
63 | CC(=O)Nc1ccc(C(=O)OCC(=O)c2ccc(F)cc2)cc1 | 11.3
64 | Cc1ccc(-n2nc3c(c2NC(=O)c2cccs2)CS(=O)(=O)C3)cc1 | 6
65 | CN(C)S(=O)(=O)c1ccc(NC(=O)c2ccccn2)cc1 | 16.1
66 | Cc1ccccc1CSc1nnc([C@@H]2CCCN2)o1.Cl | 10.5
67 | COc1ccc(OC(=O)c2cn(C)nc2C(F)(F)F)cc1 | 11.3
68 | Cc1ccc2cc(C#N)c(NCCCNC(=O)C3CCCO3)nc2c1 (stereo not shown) | 1.42
69 | CC1CCN(C2CCN(S(=O)(=O)c3ccc(F)cc3)CC2)CC1.O=C(O)C(=O)O | -16.2

Row | SMILES | hERG current change (%, negative = inhibition) at 1uM [%]
70 | CCNCc1ccccc1OCc1ccccc1.Cl | 9.31
71 | O=C(O)C(NS(=O)(=O)c1cccc2nsnc12)c1ccccc1 (stereo not shown) | 13.7
72 | CC(=O)OC(C)(C)C#CCN1CCCC1 | 10.4
73 | COc1cccc2oc3ccc(C#CC4(N)CCCCC4)cc3c(=O)c12 | -1.98
74 | Cc1ccc(/C=N/NC(=S)NCCc2ccccc2)s1 | 16.8
75 | Cn1cnnc1SCC(=O)Nc1cccc(S(=O)(=O)N2CCCCCC2)c1 | 4.35
76 | COc1ccc(C(CNC(=O)COc2ccccc2)N2CCOCC2)cc1 (stereo not shown) | 11.6
77 | Cc1nc2cc(NC(=O)N3CCCC3)ccc2n1C | 8.27
78 | CC(Oc1cccc2ccccc12)C(=O)N/N=C/c1cccnc1 (stereo not shown) | 15.3
79 | O=C(/C=N/O)NCCN1CCCCC1 | 13.4
80 | O=C(Cn1c(CO)nc2ccccc21)Nc1cc(C(F)(F)F)ccc1N1CCOCC1 | 8.51
81 | CCn1ccnc1CN(C)C(=O)C1CCC(=O)N(Cc2cccc(C(F)(F)F)c2)C1 (stereo not shown) | 1.11
82 | C=CCNC(=S)NNC(=O)C(CCCC)CC(O)COCC(C)C (stereo not shown) | 5.02
83 | CNC(=O)CC(C(=O)O)c1ccc(OC(C)C)cc1 (stereo not shown) | 0.895
84 | O=C(O)CCCCCCCCc1cn(CC2CCCCC2)nn1 | 17
85 | CN=c1sc(C(=O)Nc2ccccc2)c(C)n1C | 6.87
86 | CS(=O)(=O)N(CC(=O)NCc1ccccc1)c1ccc(Cl)cc1 | 15.2
87 | CCOC(=O)[C@H]1[C@H]2COc3ccc(Cl)cc3[C@@H]2N2C(=O)c3cc(Cl)ccc3NC(=O)[C@@]12C | 10
88 | CCOC(=O)c1nn(-c2ccc(Br)cc2)cc1C(=O)c1cccc2ccccc12 | 11.6
89 | O=C(C1CCCN(S(=O)(=O)c2cccc3nonc23)C1)N1CCN(c2cccc(Cl)c2)CC1 (stereo not shown) | 11.1
90 | O=C1NC(=O)C(CCc2ccncc2)(Cc2cccc(Cl)c2Cl)C(=O)N1c1ccc(Br)cc1 (stereo not shown) | 2.57
91 | COc1ccc(C(=O)OCC(=O)c2ccc(C3CCCCC3)cc2)cc1 | 10.1
